Reference: patent EP4763865A1 (Minghui Pharmaceutical (Hangzhou) Limited, dated 2026)

B1: MHAB07-3-1 (Fc fusion)
chain: QLQLVESGGGLVQPGGSLRLSCAASGRITNTYVMGWVRQAPGKEREFQAAITWTVGSTYYVDSVKGRFTISRDNAKNTLYLQMNSLRPEDTAVYYCAASRFSAWPPRGTLGEWNSWGQGTQVTVSS[human IgG1 Fc with changes not shown]
B2: MHAB07-3 (Fc fusion)
chain: QLQLVESGGGLVQAGGSLRLSCAASGRITNTYVMGWFRQAPGKERELQAAITWTVGSTYYVDSVKGRFTISRDNAKNTLYLQMNSLKPEDTAVYYCAASRFSAWPPRGTLGEWNSWGQGTQVTVSS[human IgG1 Fc with changes not shown]
notes: also called MHAB07-03
B3: MHAB07-3-2 (Fc fusion)
chain: QLQLVESGGGLVQPGGSLRLSCAASGRITNTYVMGWVRQAPGKEREFVAAITWTVGSTYYVDSVKGRFTISRDNAKNTLYLQMNSLRPEDTAVYYCAASRFSAWPPRGTLGEWNSWGQGTQVTVSS[human IgG1 Fc with changes not shown]

How the values were obtained:
[1] = biological target: T1, human c-MET on Hs746T human gastric cancer cells (human, UniProt P08581); experiment: cell-based or functional assay
[2] = biological target: T1, human c-MET on Hs746T human gastric …; experiment: flow cytometry on Hs746T cells, 4-parameter fit
[3] = biological target: T2, Human c-MET, His Tag (Sino Biological, Cat. No. 10692-H08H) (human, UniProt P08581 25-932); experiment: ELISA, coated human c-MET His Tag, 4-parameter fit
T2 construct: also called human c-MET antigen; not shown: His tag

[4] = biological target: T1, human c-MET on Hs746T human gastric …; experiment: flow cytometry on Hs746T cells, PE secondary antibody, 4-parameter fit
[5] = biological target: T1, human c-MET on Hs746T human gastric …; experiment: flow cytometry on Hs746T cells, 4-parameter fit; remark: listed apart in the source
[6] = biological target: T1, human c-MET on Hs746T human gastric …; experiment: cell-based or functional assay; remark: listed apart in the source
[7] = biological target: T3, Mouse c-MET Protein, His Tag (Sino Biological, Cat. No. 50622-M08H) (mouse, UniProt P16056 25-929); experiment: ELISA, coated antigen
T3 construct: not shown: His tag

[8] = biological target: T4, Rat c-MET Protein, hFc Tag (Sino Biological, Cat. No. 80004-R02H) (rat, UniProt P97523 25-935); experiment: ELISA, coated antigen, anti-camelid VHH HRP detection
T4 construct: not shown: hFc tag

Row | Binder | Fab-ZAP endocytosis-mediated cell killing, Bottom (killing rate %) [1] [%] | Fab-ZAP endocytosis-mediated cell killing, EC50 [1] [pM] | Fab-ZAP endocytosis-mediated cell killing, Top (killing rate %) [1] [%] | Bottom [2] [MFI] | EC50 [2] [µg/mL] | Top [2] [MFI] | EC50 [3] [ng/mL] | EC50 [4] [µg/mL] | EC50 [5] [µg/mL] | Fab-ZAP endocytosis-mediated cell killing, EC50 [6] [pM] | binding result [7] | binding result [8]
1 | B1 | 9.62 | 1.95 | 94.4 | 2330 | 0.0777 | 165000 |  |  |  |  |  | 
2 | B2 | 8.79 | 2.5 | 93.8 | 2170 | 0.0623 | 173000 | 0.789 | 0.0722 | 41.2 | ~17.4 |  | 
3 | B3 | 16.2 | 2.63 | 95.9 | 1760 | 0.0829 | 158000 |  | 0.0642 |  |  | no binding (tested: initial concentration 10 µg/mL) | no binding (tested: initial concentration 10 µg/mL)

Read-outs that look alike come from different tables or passages of the source.
